Inconclusive means that the source gave no clear call. Such entries were picked first, then a sample of the others. No potency is given beside an inconclusive call; the fits are too rough. Calls of active or inactive are those of the source. Calls come from the whole dose curve; as a rule, active = well fitted inhibition curve with a large enough effect; inconclusive = small, poorly fitted or top-dose-only effect; inactive = no such curve, though single readings can be large or run the other way.
Experiment: qHTS Screen of the MIPE 4.0 Collection Against Ewings Sarcoma (RDES) (AID 1259252); note: nearly all actives have a fitted effect of over 35% in size;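 for viability (percent of control): 100% = DMSO-treated cells and 0% = medium-only wells without cells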
Details: RD-ES Ewing sarcoma viability, CellTiter-Glo, 48 h; series mostly up to 45.8 µM; viability (percent of control): at the top concentration
How it was run: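 Here, cells in 5% FBS RPMI were exposed for two days (48 h) to compound dilutions added four hours after plating. ATP-based CellTiter-Glo luminescence measured viability, normalized to vehicle and no-cell blanks.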
With `NS(=O)(=O)c1cc2c(cc1Cl)NC(C(Cl)Cl)NS2(=O)=O` (stereo not drawn) the “viability (percent of control)” value was inactive: 122%. In the case of `Cc1cc(Nc2nc(N[C@@H](C)c3ccc(F)cc3)c(C#N)cc2F)n[nH]1`, the Potency is reported as active: 1.66 µM. In the case of `CC[C@H](CC[C@@H](C)[C@H]1CC[C@H]2[C@@H]3CC=C4C[C@@H](O)CC[C@]4(C)[C@@H]3CC[C@]12C)C(C)C`, the “viability (percent of control)” value is reported as inactive: 103%. For `COc1cc(-c2nn(C3CCC(N4CCN(C(C)=O)CC4)CC3)c3ncnc(N)c23)ccc1NC(=O)c1cc2ccccc2n1C` (stereo not drawn), the Potency was active: 1.87 µM. In the case of `CCCCOc1c(C(=O)c2c(F)cc(C)cc2F)cnc2n[nH]cc12`, the Potency is reported as active: 2.96 µM. With `CCCCCCOC(=O)N=C(N)c1ccc(NCc2nc3cc(C(=O)N(CCC(=O)OCC)c4ccccn4)ccc3n2C)cc1` the Potency was inconclusive [inhibitor, single point]. With `COc1c(C)c2c(c(O)c1CC=C(C)CCC(=O)OCCN1CCOCC1)C(=O)OC2` the Potency was inconclusive [inhibitor, full curve]. In the case of `CCc1c2c(nc3ccc(OC(=O)N4CCC(N5CCCCC5)CC4)cc13)-c1cc3c(c(=O)n1C2)COC(=O)[C@]3(O)CC`, the Potency is reported as active: 0.332 µM. For `CC[C@H](CC#N)OC(=O)N[C@@H](C)c1cccc(NC(=O)Nc2ccc(-c3cnco3)c(OC)c2)c1`, the Potency was inconclusive [inhibitor, full curve, poor fit]. In the case of `CCN(CC)Cc1ccc2cc(COC(=O)Nc3ccc(C(=O)NO)cc3)ccc2c1`, the Potency is reported as active: 0.743 µM. For `Nc1ccn(C2CO[C@H](CO)O2)c(=O)n1` (stereo partly drawn), the “viability (percent of control)” value was inactive: 101%. With `CC1=C(C(=O)Nc2cc3cn[nH]c3cc2F)C(c2ccc(Cl)cc2F)N=C(c2ccnc(Cl)c2)N1` (stereo not drawn) the Potency was active: 18.7 µM. For `COc1cc(OC)c(NC(=O)Nc2cc(C)on2)cc1Cl`, the “viability (percent of control)” value was inactive: 99%. For `CCOC(=O)c1ccc(C#Cc2ccc3c(c2)C(C)(C)CCS3)nc1`, the “viability (percent of control)” value was inactive: 117%. In the case of `CN(CC(=O)N(Cc1ccc(C2CCCCC2)cc1)c1ccc(C(=O)O)c(O)c1)S(=O)(=O)c1c(F)c(F)c(F)c(F)c1F`, the Potency is reported as active: 18.7 µM. With `O=C(c1ccc(C=Cc2n[nH]c3ccccc23)cc1)N1CCNCC1` the Potency was inconclusive [inhibitor, partial curve]. In the case of `C[C@@H]1CC(=O)NN=C1c1ccc(NN=C(C#N)C#N)cc1`, the Potency is reported as inconclusive [inhibitor, single point]. With `CON=C(C(=O)N[C@@H]1C(=O)N2C(C(=O)O)=C(CSC(=O)c3ccco3)CS[C@H]12)c1csc(N)n1` the “viability (percent of control)” value was inactive: 125%. In the case of `C[C@]12CCC(=O)C=C1[C@@H]1CC1[C@H]1[C@H]3[C@@H]4C[C@H]4[C@@]4(CCC(=O)O4)[C@@]3(C)CC[C@H]12` (stereo partly drawn), the “viability (percent of control)” value is reported as inactive: 115%. With `CC(C)c1c(C(=O)Nc2ccccc2)c(-c2ccccc2)c(-c2ccc(F)cc2)n1CC[C@H](O)C[C@@H](O)CC(=O)O` the Potency was inconclusive [inhibitor, partial curve]. With `CC(C)C[C@H](NC(=O)[C@@H](NC(=O)c1cccc(-c2ccccc2)n1)[C@@H](C)O)B(O)O` the Potency was active: 0.059 µM. With `COc1ccc(Cn2ccc3ccc(C(=O)NO)cc32)cc1` the Potency was inconclusive [inhibitor, full curve]. For `NCc1c[nH]c(=S)n1[C@H]1CCc2c(F)cc(F)cc2C1`, the Potency was inconclusive [inhibitor, single point]. In the case of `C=CC(=O)Nc1cc(NC(=O)c2ccc(C)c(NC(=O)c3ccno3)c2)cc(C(F)(F)F)c1`, the Potency is reported as active: 23.5 µM. For `COC(=O)[C@H](CCCN=C(N)N)NS(=O)(=O)c1ccc(C)cc1`, the “viability (percent of control)” value was inactive: 122%. In the case of `CCCCCN(C)CCC(O)(P(=O)(O)O)P(=O)(O)O`, the “viability (percent of control)” value is reported as inactive: 119%. With `Clc1ccccc1CN1CCc2sccc2C1` the “viability (percent of control)” value was inactive: 118%. With `CCN(CCO)CCCOc1ccc2c(Nc3cc(CC(=O)Nc4cccc(F)c4)[nH]n3)ncnc2c1` the Potency was inconclusive [inhibitor, partial curve].

Reference: PubChem BioAssay (NCATS)
Potency is the fitted concentration of half-maximal effect; tags give direction and shape of the fitted curve.
